Reference: PubChem BioAssay (NCATS)
The inconclusive results got no clear call from the source; some entries with a clear call stand among them for comparison. For some of these results: Where the call is inconclusive, the potency comes from a doubtful curve fit. The source made the active and inactive calls. Calls come from the whole dose curve; as a rule, active = well fitted curve in the direction sought with a large enough effect; inconclusive = small, poorly fitted or top-dose-only effect, or another doubt; inactive = no such curve, though single readings can be large; an effect the other way counts as inactive or inconclusive.

Columns and labels:
[1] = P-glycoprotein substrates identified in KB-8-5-11 adenocarcinoma cell line, qHTS therapeutic library screen (AID 1346987); conditions: activity change, negative = cytotoxicity: at 44.5 µM (top of the series); note: nearly all actives have a fitted effect of over 65% in size; for activity change, negative = cytotoxicity: % is set by controls: 0 for no effect and ±100 for the full control effect
How it was run: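 Steps: plate 500 KB-8-5-11 cells/well in DMEM + 10% FCS (colchicine removed); pin compounds in dose-response; incubate 72 h, 37 degree C, 5% CO2; add CellTiter-Glo, 5 min; read luminescence.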

[2] = system: Zika virus NS2B-NS3 protease (unlinked complex); assay: Primary screen GU Rhodamine qHTS for Zika virus inhibitors: Unlinked NS2B-NS3 protease assay (AID 1347159); conditions: Recombinant ZIKV NS2B-NS3 protease, Rhodamine110 substrate fluorescence; activity change, negative = inhibition: at 107 µM (top of the series); note: nearly all actives have a fitted effect of over 60% in size; for activity change, negative = inhibition: % is set by controls: 0 for no effect and ±100 for the full control effect
How it was run: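 Noncovalent NS2B hydrophilic domain/NS3 protease complex (25 nM final) in 10 mM Tris-HCl pH 8.0, 0.01% Tween 20, preincubated 15 min with compounds (up to 114 microM), then 1.5 microM Rhodamine110 substrate. Fluorescence change over 15 min fitted to 4-parameter Hill.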

[3] = Primary qHTS for inhibitors of nuclear receptor binding SET domain protein 2 (NSD2) in an RCH-ACV wild type WT cells (2C) (AID 1645877); conditions: activity change, negative = cell killing: at 44.9 µM (top of the series) unless noted; note: nearly all actives have a fitted effect of over 70% in size
[4] = Primary fluorescence-based thiol-reactive (MSTI) qHTS assay for identification of artifact compounds. (AID 1845221);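 note: thiol-reactive compounds lower the probe fluorescence signal; nearly all actives have a fitted effect of over 65% in size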
How it was run: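 In PBS pH 7.4 with 2% DMSO, each compound met 4 uM MSTI for one hour at ambient temperature, shielded from light, before fluorescence detection.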

C33A = assay: Primary qHTS to identify gynecologic anti-cancer compounds using libraries of approved drugs and bioactive compounds (AID 1345084); conditions: Gynecologic cancer cell panel viability, ATPlite luminescence, 48 h; series mostly up to 57.5 µM; note: nearly all actives have a fitted effect of over 55% in size; for activity change, negative = cytotoxicity: % is set by controls: 0 for no effect and ±100 for the full control effect
How it was run: (§1)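 Five-concentration response, 48 h; readout is ATP-driven luciferase luminescence.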

CAOV3 = assay: as above; conditions: Gynecologic cancer cell panel viability, ATPlite luminescence, 48 h; series mostly up to 57.5 µM
How it was run: as §1

CASKI = assay: as above; conditions: Gynecologic cancer cell panel viability, ATPlite luminescence, 48 h; series mostly up to 57.5 µM
How it was run: as §1

JEG-3 = assay: as above; conditions: Gynecologic cancer cell panel viability, ATPlite luminescence, 48 h; series mostly up to 57.5 µM
How it was run: as §1

OV90 = assay: as above; conditions: Gynecologic cancer cell panel viability, ATPlite luminescence, 48 h; series mostly up to 57.5 µM
How it was run: as §1

PA-1 = assay: as above; conditions: Gynecologic cancer cell panel viability, ATPlite luminescence, 48 h; series mostly up to 57.5 µM
How it was run: as §1

SKOV3 = assay: as above; conditions: Gynecologic cancer cell panel viability, ATPlite luminescence, 48 h; series mostly up to 57.5 µM
How it was run: as §1

[5] = system: Zika virus NS2B-NS3 protease (linked construct); assay: Primary screen NINDS Rhodamine qHTS for Zika virus inhibitors (AID 1347160); note: nearly all actives have a fitted effect of over 55% in size
How it was run: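 Purified NS2B-NS3 protease with the NS2B hydrophilic domain joined by a flexible linker (25 nM) in 10 mM Tris-HCl pH 8.0, 0.01% Tween 20, preincubated 15 min at RT with compound; Rhodamine110 peptide substrate 1.5 µM; fluorescence change over 15 min; 4-parameter Hill fit.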

[6] = Primary redox qHTS assay for identification of artifact compounds. (AID 1845223)
How it was run: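 Amplex Red (25 uM) and HRP (250 mU/mL) in HBSS, with compounds for 15 min, then 250 uM DTT for 30 min, room temperature, dark. Fluorescence 525/598 nm read; normalized to DMSO and 10 uM DA3003; Hill fit.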

Es-2 = assay: Primary qHTS to identify gynecologic anti-cancer compounds using libraries of approved drugs and bioactive compounds (AID 1345084); conditions: Gynecologic cancer cell panel viability, ATPlite luminescence, 48 h; series mostly up to 57.5 µM; note: nearly all actives have a fitted effect of over 55% in size; for activity change, negative = cytotoxicity: % is set by controls: 0 for no effect and ±100 for the full control effect
How it was run: as §1

Hek293T = assay: as above; conditions: Gynecologic cancer cell panel viability, ATPlite luminescence, 48 h, control line for the selectivity index; series mostly up to 57.5 µM
How it was run: as §1

Tov112D = assay: as above; conditions: Gynecologic cancer cell panel viability, ATPlite luminescence, 48 h; series mostly up to 57.5 µM
How it was run: as §1

[7] = Primary qHTS for inhibitors of nuclear receptor binding SET domain protein 2 (NSD2) in an isogenic RCH-ACV NSD2 p.E1099K mutant (9B) (AID 1645876); conditions: activity change, negative = viability loss: at 44.9 µM (top of the series) unless noted; note: nearly all actives have a fitted effect of over 70% in size
HeLa = assay: Primary qHTS to identify gynecologic anti-cancer compounds using libraries of approved drugs and bioactive compounds (AID 1345084); conditions: Gynecologic cancer cell panel viability, ATPlite luminescence, 48 h; series mostly up to 57.5 µM; note: nearly all actives have a fitted effect of over 55% in size
How it was run: as §1

Tov-21-G = assay: as above; conditions: Gynecologic cancer cell panel viability, ATPlite luminescence, 48 h; series mostly up to 57.5 µM
How it was run: as §1
Potency is the fitted concentration of half-maximal effect; tags give direction and shape of the fitted curve.

Q: What does the source list for `C=C1C(OC(C)=O)CCC2(C)CC3(OC)OC(=O)C(C)=C3CC12` (stereo unspecified)?
A: Potency [1]: inactive; Potency [2]: inactive; Potency [3]: inconclusive: 3.19 µM [inhibitor, full curve, poor fit]; Potency [4]: inconclusive: 14.7 µM [inhibitor, partial curve, poor fit]; Potency (C33A): inconclusive: 31.6 µM [cytotoxic, single point]; Potency (CAOV3): inconclusive: 11.2 µM [cytotoxic, partial curve, poor fit]; Potency (CASKI): inconclusive: 28.2 µM [cytotoxic, single point]; Potency (JEG-3): inconclusive: 20 µM [cytotoxic, single point]; Potency (OV90): inconclusive: 25.1 µM [cytotoxic, single point]; Potency (PA-1): inactive; Potency (SKOV3): inconclusive: 28.2 µM [cytotoxic, single point]

Q: With `COc1cc(/C=C/C(=O)O)ccc1O[C@@H]1O[C@H](CO)[C@@H](O)[C@H](O)[C@H]1O[C@@H]1OC[C@](O)(CO)[C@H]1O` as the molecule, how does the Potency (C33A) read?
A: The Potency was “inactive”.

Q: With `CO[C@@H](Cc1ccc(OCCc2nc(-c3ccccc3)oc2C)c2ccsc12)C(=O)O` as the molecule, how does the Potency [2] read?
A: Its Potency is active: 17.8 µM.

Q: What about the Potency [5] of the same molecule?
A: The Potency was active: 12.6 µM.

Q: What about the Potency [6] of the same molecule?
A: Its Potency is inconclusive: 2.67 µM [activator, full curve].

Q: What about the Potency (C33A) of the same molecule?
A: Its Potency is “inactive”.

Q: What about the Potency (CAOV3) of the same molecule?
A: The Potency was “inactive”.

Q: And the Potency (JEG-3)?
A: Its Potency is “inactive”.

Q: And the Potency (PA-1)?
A: The Potency was “inactive”.

Q: For `CCCCNc1ncc2c(-c3ccc(F)cc3)nn(CC3CCC(N)CC3)c2n1` (stereo unspecified), which Potency [1] is on record?
A: The Potency was active: 1.78 µM.

Q: And the Potency [5]?
A: The Potency was “inactive”.

Q: What about the Potency (C33A) of the same molecule?
A: Its Potency is active: 11.2 µM.

Q: And the Potency (CAOV3)?
A: Its Potency is inconclusive: 5.62 µM [cytotoxic, partial curve, poor fit].

Q: What about the Potency (CASKI) of the same molecule?
A: Its Potency is active: 10 µM.

Q: What about the Potency (Es-2) of the same molecule?
A: The Potency was inconclusive: 11.2 µM [cytotoxic, single point].

Q: And the Potency (Hek293T)?
A: The Potency was inconclusive: 11.2 µM [cytotoxic, single point].

Q: What about the Potency (JEG-3) of the same molecule?
A: Its Potency is inconclusive: 15.8 µM [cytotoxic, partial curve, poor fit].

Q: What about the Potency (OV90) of the same molecule?
A: The Potency was inconclusive: 7.94 µM [cytotoxic, partial curve].

Q: What about the Potency (PA-1) of the same molecule?
A: The Potency was inconclusive: 7.94 µM [cytotoxic, partial curve, poor fit].

Q: What about the Potency (SKOV3) of the same molecule?
A: The Potency was inconclusive: 14.1 µM [cytotoxic, single point].

Q: What about the Potency (Tov112D) of the same molecule?
A: Its Potency is inconclusive: 7.08 µM [cytotoxic, partial curve].

Q: Which Potency [7] does the source give for `O=S(=O)(O)c1cc(I)c(O)c2ncccc12` here?
A: The Potency was “inactive”.

Q: Which activity change, negative = cytotoxicity (C33A) does the source give for `CC(=O)OCC1OC(O[C@H]2CC[C@@]3(C)C(CC[C@]4(C)C3CC=C3[C@@H]5CC(C)(C)CC[C@]5(C(=O)O)CC[C@]34C)[C@]2(C)CO)C(O)C(O)C1OC1OC(C)C(O)C(OC2OCC(O)C(O)C2O)C1O` (stereo partly specified) here?
A: Its activity change, negative = cytotoxicity is inactive: -0.849% [at 11.6 µM].

Q: With `CC(C)(Oc1ccc(-c2nc3cc(Cl)ccc3s2)cc1)C(=O)O` as the molecule, how does the Potency [5] read?
A: Its Potency is inconclusive: 28.2 µM [inhibitor, single point].

Q: And the Potency [7]?
A: The Potency was “inactive”.

Q: And the Potency (C33A)?
A: Its Potency is inconclusive: 39.8 µM [cytotoxic, single point].

Q: And the Potency (CAOV3)?
A: Its Potency is inconclusive: 39.8 µM [cytotoxic, single point].

Q: What about the Potency (CASKI) of the same molecule?
A: Its Potency is inconclusive: 39.8 µM [cytotoxic, single point].

Q: And the Potency (Es-2)?
A: The Potency was inconclusive: 31.6 µM [cytotoxic, single point].

Q: And the Potency (HeLa)?
A: The Potency was inconclusive: 31.6 µM [cytotoxic, single point].

Q: And the Potency (Hek293T)?
A: Its Potency is inconclusive: 39.8 µM [cytotoxic, single point].

Q: What about the Potency (JEG-3) of the same molecule?
A: Its Potency is inconclusive: 14.1 µM [cytotoxic, partial curve].

Q: And the Potency (OV90)?
A: Its Potency is inconclusive: 17.8 µM [cytotoxic, partial curve, poor fit].

Q: What about the Potency (PA-1) of the same molecule?
A: Its Potency is inconclusive: 15.8 µM [cytotoxic, single point].

Q: What about the Potency (SKOV3) of the same molecule?
A: The Potency was inconclusive: 14.1 µM [cytotoxic, partial curve, poor fit].

Q: What about the Potency (Tov-21-G) of the same molecule?
A: The Potency was inconclusive: 20 µM [cytotoxic, partial curve].

Q: What about the Potency (Tov112D) of the same molecule?
A: Its Potency is inconclusive: 39.8 µM [cytotoxic, single point].

Q: With `COCCNCc1ccc(-c2cc3nccc(Oc4ccc(NC(=O)C5(C(=O)Nc6ccc(F)cc6)CC5)cc4F)c3s2)nc1` as the molecule, how does the Potency [1] read?
A: Its Potency is active: 4.61 µM.

Q: And the Potency [7]?
A: The Potency was active: 2.9 µM.

Q: And the Potency [4]?
A: The Potency was “inactive”.

Q: And the Potency (C33A)?
A: The Potency was inconclusive: 35.5 µM [cytotoxic, single point].

Q: And the Potency (CAOV3)?
A: Its Potency is inconclusive: 39.8 µM [cytotoxic, single point].

Q: What about the Potency (CASKI) of the same molecule?
A: Its Potency is inconclusive: 39.8 µM [cytotoxic, single point].

Q: What about the Potency (HeLa) of the same molecule?
A: The Potency was inconclusive: 35.5 µM [cytotoxic, single point].

Q: What about the Potency (Hek293T) of the same molecule?
A: The Potency was inconclusive: 22.4 µM [cytotoxic, partial curve, poor fit].

Q: And the Potency (JEG-3)?
A: The Potency was inconclusive: 39.8 µM [cytotoxic, single point].

Q: And the Potency (OV90)?
A: The Potency was inconclusive: 20 µM [cytotoxic, single point].

Q: And the Potency (PA-1)?
A: The Potency was inconclusive: 28.2 µM [cytotoxic, single point].

Q: And the Potency (SKOV3)?
A: The Potency was inconclusive: 39.8 µM [cytotoxic, single point].

Q: What about the Potency (Tov-21-G) of the same molecule?
A: Its Potency is inconclusive: 25.1 µM [cytotoxic, single point].

Q: What about the Potency (Tov112D) of the same molecule?
A: The Potency was inconclusive: 31.6 µM [cytotoxic, single point].
